Measured values published in article PMC4336329 (PLoS ONE, 2015).
Hit rate of the full screen: of about 310,000 compounds, about 2,200 (0.71%) showed an effect of 50% or more. Effects have a minus sign here. This is one part of the list.

Molecular target: human ether-à-go-go-related gene (hERG) potassium channel (human, UniProt Q12809)
Assay: primary screen, population patch clamp on CHO cells stably expressing hERG

Chain of human ether-à-go-go-related gene (hERG) potassium channel (Q12809 whole entry, looked up): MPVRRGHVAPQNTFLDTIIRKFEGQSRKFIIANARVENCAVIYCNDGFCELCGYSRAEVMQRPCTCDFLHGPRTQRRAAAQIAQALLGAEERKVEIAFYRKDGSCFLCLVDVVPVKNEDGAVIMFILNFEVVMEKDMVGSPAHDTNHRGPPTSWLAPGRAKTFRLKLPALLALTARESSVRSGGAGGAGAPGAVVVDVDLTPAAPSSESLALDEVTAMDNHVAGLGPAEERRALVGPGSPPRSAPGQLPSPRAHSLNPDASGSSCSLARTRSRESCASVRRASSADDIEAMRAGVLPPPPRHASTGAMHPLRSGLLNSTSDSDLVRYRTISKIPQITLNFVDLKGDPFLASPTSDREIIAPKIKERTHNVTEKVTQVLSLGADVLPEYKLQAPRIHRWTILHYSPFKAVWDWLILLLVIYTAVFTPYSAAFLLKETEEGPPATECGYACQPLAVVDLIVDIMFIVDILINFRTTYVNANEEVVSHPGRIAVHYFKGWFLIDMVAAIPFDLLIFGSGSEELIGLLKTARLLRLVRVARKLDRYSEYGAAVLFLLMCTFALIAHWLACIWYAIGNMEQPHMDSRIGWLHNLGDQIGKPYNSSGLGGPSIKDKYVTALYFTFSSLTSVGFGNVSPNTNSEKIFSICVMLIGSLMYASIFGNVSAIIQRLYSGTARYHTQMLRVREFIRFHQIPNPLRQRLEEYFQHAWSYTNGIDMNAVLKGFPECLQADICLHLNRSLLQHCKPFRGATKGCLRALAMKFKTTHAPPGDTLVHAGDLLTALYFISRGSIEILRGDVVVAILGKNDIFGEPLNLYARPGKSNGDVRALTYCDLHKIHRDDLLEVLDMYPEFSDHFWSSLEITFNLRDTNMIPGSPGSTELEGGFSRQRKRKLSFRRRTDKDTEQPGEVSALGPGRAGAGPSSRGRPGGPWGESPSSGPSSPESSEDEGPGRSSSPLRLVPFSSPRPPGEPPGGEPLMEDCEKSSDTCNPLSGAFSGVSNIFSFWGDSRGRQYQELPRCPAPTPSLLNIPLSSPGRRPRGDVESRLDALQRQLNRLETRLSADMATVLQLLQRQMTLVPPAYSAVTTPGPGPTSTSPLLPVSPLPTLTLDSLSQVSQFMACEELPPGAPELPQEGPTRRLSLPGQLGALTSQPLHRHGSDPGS

| Structure (SMILES) | hERG current change (%, negative = inhibition) at 1uM [%] |
| --- | --- |
| CN(C)S(=O)(=O)c1cccc(NC(=O)CN2C(=O)C3C4C=CC(C4)C3C2=O)c1 (centres unmarked) | 5.07 |
| O=C(CCC(=O)N1CCOCC1)NCc1cccc(C(F)(F)F)c1 | 8.17 |
| CC1CN(Cc2c(O)ccc3c(=O)c(-c4ccccc4)coc23)CC(C)O1.Cl (centres unmarked) | 2.87 |
| COc1cnn(-c2ccc(C)cc2)c(=O)c1SCc1ccccc1 | -1.89 |
| CCOC(=O)c1c(-c2ccc(OC)cc2)csc1/N=C/C1C(=O)CCCC1=O | 12.2 |
| CN(C)C(=O)[C@@H]1C[C@H]1[C@@H](NC(=O)OCc1ccccc1)c1ccccc1 | -40.2 |
| O=c1c2cc(Br)ccc2[nH]c(=S)n1Cc1ccccn1 | 7.45 |
| CCOC(=O)c1nn(-c2ccc(Cl)cc2)c(=O)c(C#N)c1C | 17 |
| COc1ccccc1C1NC(=O)NC(C)=C1C(=O)OC1CCC(C)CC1 (centres unmarked) | 12.2 |
| Cc1cc(C)cc(NC(=O)Cn2c(-c3ccccc3Cl)nc3ccccc32)c1 | 5.25 |
| COc1cccc2[nH]c3c(N4CCc5ccccc5C4)ncnc3c12 | 6.59 |
| CCOc1ccccc1NC(=O)/C(C#N)=C/c1c(C)nn(-c2ccccc2)c1Cl | 0.824 |
| CN(C)c1ccc(C2N(c3ccc(F)cc3)C(=O)C3CCCN32)cc1 (centres unmarked) | 9.85 |
| O=[N+]([O-])c1ccc(NCCCN2CCOCC2)nc1 | -0.0778 |
| COc1ccccc1N(CN1CCCC1=O)C(=O)c1ccccc1F | -12.3 |
| CN1/C(=C\C(=O)COC(=O)c2ccc([N+](=O)[O-])o2)C(C)(C)c2ccccc21 | 2.83 |
| O=C(Nc1ccc(Cl)c(Cl)c1)c1ccc(Cn2c(=O)[nH]c3ccsc3c2=O)cc1 | 10.3 |
| Cc1ccccc1CSc1nnc(-c2ccncc2)o1 | 3.37 |
| CCn1nc(C(=O)OCC(=O)NCCN2C(=O)CSC2=O)c2ccccc2c1=O | 3.42 |

| Structure (SMILES) | hERG current change (%, negative = inhibition) at 1uM [%] |
| --- | --- |
| CC(CCc1ccccc1)NC(=O)C(=O)N1CCOCC1 (centres unmarked) | 17.7 |
| CCCC(=O)Nc1nc2nc(-c3ccccc3)cc(-c3ccccc3)n2n1 | 10 |
| CC(=O)N(C)C1=C(N2CCOCC2)C(=O)c2ccccc2C1=O | 5.31 |
| CCCCc1ccc(NC(=S)N2CCN(C(=O)OCC)CC2)cc1 | 8.14 |
| CN(CCCC(=O)O)S(=O)(=O)c1ccc2c(c1)C(=O)c1cc(S(=O)(=O)N(C)CCCC(=O)O)ccc1-2 | 13.5 |
| CCCNC(=S)Nc1ccc(CC(=O)OC)cc1 | 4.55 |
| COc1ccc(CCNC(=O)CCCc2nnc3n(C)c(=O)c4sccc4n23)cc1OC | 12.7 |
| CCSc1cc(N2CCCC2)nc(-c2ccccc2)n1 | 14.2 |
| O=C(NCc1ccccc1Cl)c1csc2c1CCCCC2 | 19.1 |
| CC1(C)CC(=O)C=C(NCCc2c[nH]c3ccccc23)C1 | 10.4 |
| CCN(C(=O)COC(=O)C1CC1)c1c(N)n(Cc2ccccc2)c(=O)[nH]c1=O | -5.78 |
| O=C(c1ccc(NS(=O)(=O)c2cccc([N+](=O)[O-])c2)cc1)N1CCN(C(=O)c2ccco2)CC1 | 1.11 |
| CCc1ccc(NS(=O)(=O)c2c(C)nc3sc(CC)nn3c2=O)cc1 | 8.38 |
| CCCN(C(=O)c1ccc(-n2cncn2)c([N+](=O)[O-])c1)C1CCS(=O)(=O)C1 (centres unmarked) | 19.7 |
| COc1ccc(NC(=O)CSc2nc3nc(C)cc(C)c3c(=O)[nH]2)cc1 | 14.4 |
| CC(=O)C(=Nc1cccc(Cl)c1)NNc1ccccc1C | 14.3 |
| O=C(Nc1ccc(N2CCN(C(=O)c3ccco3)CC2)c(Cl)c1)c1cccs1 | 8.91 |
| CCc1oc(C(=O)OC)cc1CSC(=N)N.Cl | 8.9 |
| O=C(CCCN1C(=O)c2cccc3cccc(c23)C1=O)Nc1ccon1 | 13.4 |

| Structure (SMILES) | hERG current change (%, negative = inhibition) at 1uM [%] |
| --- | --- |
| Cc1ccc(NC(=O)C(c2ccccc2)N2CCN(CC(=O)N3CCOCC3)CC2)cc1Cl (centres unmarked) | -27.1 |
| O=C(CSc1nc(-c2ccccc2)ns1)N1CCOCC1 | 6.82 |
| CN(C)CCC(=O)N1c2ccccc2Sc2ccc(C(F)(F)F)cc21.O=C(O)/C=C/C(=O)O | 6.4 |
| O=S(=O)(NCCc1csc(-c2cccnc2)n1)c1ccc2c(c1)OCCO2 | 8.53 |
| COc1ccccc1N1CCN(CC(=O)c2c(C)n(C)c3ccccc23)CC1 | 1.42 |
| Cc1cc(C(=O)Cn2nc(C(=O)O)c3ccccc3c2=O)c(C)n1CC(F)(F)F | 9.55 |
| COc1cc(OC)cc(C(=O)NNC(=O)c2cc3ccccc3cc2O)c1 | 14.4 |
| COc1ccc(C2=C(N)c3ccccc3C2=O)cc1 | 15.7 |
| CN1CCN(C(=O)c2ccccc2NC(=O)c2cccs2)CC1 | 3.42 |
| COc1ccc(N2CCN(C(=O)c3cc4c(C)nc5ccccc5c4o3)CC2)cc1 | 0.465 |
| Br.CC(C)(C)C(=O)Cn1c(NCCO)nc2ccccc21 | 6.96 |
| CN(C)c1nc(-c2ccccc2)nc(-c2ccc(Cl)cc2)c1C#N | 10.8 |
| O=C(c1sccc1Br)N1CCN(Cc2ccc3c(c2)OCO3)CC1 | 8.79 |
| COC(=O)Cn1cnc2c(nnn2-c2ccc(F)cc2)c1=O | 14 |
| COc1ccc(NS(=O)(=O)c2ccc(N)cc2)nn1 | 17.4 |
| CCCn1c(N)c(C(=O)CSc2nc(C)nc3sc(C)c(C)c23)c(=O)[nH]c1=O | 12.6 |
| O=C(N/N=C/c1ccc(C(F)(F)F)cc1)c1ccc(O)cc1 | 14.5 |
| CCOC(=O)N/N=C/c1cn(Cc2ccccc2Cl)c2ccccc12 | 4.67 |
